This is one part of the list. No stated cut-off is given here; in the data, active = 3.2 or more and inactive = the rest. The signal is at background level for most entries.
Each binder was assayed against SHP2 C-SH2 domain E139D (assay: enrichment score (SH2-bound / input frequency) (ratio); bacterial display of known human phosphotyrosine sites (pTyr-Var adds point mutants) read by sequencing; higher = stronger binding; tyrosines were phosphorylated by kinases first). Details: peptide library: pTyr-Var.
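Further: displayed peptides selected on beads carrying the immobilized SH2 domain, with library peptides lacking any tyrosine serving as negative controls.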

Enrichment score, inactive:
RRGMPYGGCGD [TGM1_Y312_R315C] 0.479, NREGVYRVFAP [TGFBI_Y537_T538R] 0.623, FGYPGYQSKHY [TIMP3_Y177] 1.03, TYEYKYPEGSS [TGM4_Y440] 0.812, WRGMPYGGRGD [TGM1_Y312_R307W] 0.989, NREGVYTDFAP [TGFBI_Y537_V539D] 0.774, YLGEEYVKAVG [TF_Y674] 0.814, FSGQVYRQRRK [TH_Y230_D227G] 0.188, RRGMPYGGHGD [TGM1_Y312_R315H] 0.243, GCKNRYDKGKP [THAP1_Y14_D17G] 2.62, HDRNTYEKYLE [TF_Y666_G671E] 0.531, TYQYKYPEGSS [TGM4_Y440_E437Q] 0.838, FGYPGYQCKHY [TIMP3_Y177_S179C] 1.48, HHTNEYEYDEL [TGM1_Y134_D132N] 0.876, SSQILYKLEQS [THADA_Y701_V699I] 1.01, EILLSYLRTGY [TGM1_Y365] 2.91, FPRTGYSVPFG [TGM1_Y370_L366P_YF] 0.956, AVLALHNSTRD [TGFB1_Y81_Y81H] 0.885

Each binder was assayed against SHP2 C-SH2 domain wild-type in the same assay as above. Details: peptide library: pTyr-Var.

Enrichment score, inactive:
RRGMPYGGCGD [TGM1_Y312_R315C] 0.324, NREGVYRVFAP [TGFBI_Y537_T538R] 0.644, FGYPGYQSKHY [TIMP3_Y177] 0.769, TYEYKYPEGSS [TGM4_Y440] 0.826, WRGMPYGGRGD [TGM1_Y312_R307W] 0.862, NREGVYTDFAP [TGFBI_Y537_V539D] 0.732, YLGEEYVKAVG [TF_Y674] 0.679, FSGQVYRQRRK [TH_Y230_D227G] 0.186, RRGMPYGGHGD [TGM1_Y312_R315H] 0.288, GCKNRYDKGKP [THAP1_Y14_D17G] 2.12, HDRNTYEKYLE [TF_Y666_G671E] 0.723, TYQYKYPEGSS [TGM4_Y440_E437Q] 0.675, FGYPGYQCKHY [TIMP3_Y177_S179C] 1.34, HHTNEYEYDEL [TGM1_Y134_D132N] 0.703, SSQILYKLEQS [THADA_Y701_V699I] 0.864, EILLSYLRTGY [TGM1_Y365] 2.53, FPRTGYSVPFG [TGM1_Y370_L366P_YF] 0.987, AVLALHNSTRD [TGFB1_Y81_Y81H] 0.942

What follows are binders tested against SHP2 N-SH2 domain L43F in the same assay as above. Details: peptide library: pTyr-Var.

Enrichment score, inactive:
RRGMPYGGCGD [TGM1_Y312_R315C] 0.129, NREGVYRVFAP [TGFBI_Y537_T538R] 0.611, FGYPGYQSKHY [TIMP3_Y177] 1.08, TYEYKYPEGSS [TGM4_Y440] 0.586, WRGMPYGGRGD [TGM1_Y312_R307W] 0.931, NREGVYTDFAP [TGFBI_Y537_V539D] 0.606, YLGEEYVKAVG [TF_Y674] 0.609, FSGQVYRQRRK [TH_Y230_D227G] 0.385, RRGMPYGGHGD [TGM1_Y312_R315H] 0.243, GCKNRYDKGKP [THAP1_Y14_D17G] 2.14, HDRNTYEKYLE [TF_Y666_G671E] 0.643, TYQYKYPEGSS [TGM4_Y440_E437Q] 0.746, FGYPGYQCKHY [TIMP3_Y177_S179C] 1.34, HHTNEYEYDEL [TGM1_Y134_D132N] 0.409, SSQILYKLEQS [THADA_Y701_V699I] 0.853, EILLSYLRTGY [TGM1_Y365] 2.62, FPRTGYSVPFG [TGM1_Y370_L366P_YF] 1.46, AVLALHNSTRD [TGFB1_Y81_Y81H] 0.895

These binders were tested against SHP2 N-SH2 domain T42A in the same assay as above. Details: peptide library: pTyr-Var.

Enrichment score, inactive:
RRGMPYGGCGD [TGM1_Y312_R315C] 0.375, NREGVYRVFAP [TGFBI_Y537_T538R] 0.531, FGYPGYQSKHY [TIMP3_Y177] 0.774, TYEYKYPEGSS [TGM4_Y440] 0.592, WRGMPYGGRGD [TGM1_Y312_R307W] 0.768, NREGVYTDFAP [TGFBI_Y537_V539D] 0.563, YLGEEYVKAVG [TF_Y674] 0.925, FSGQVYRQRRK [TH_Y230_D227G] 0.221, RRGMPYGGHGD [TGM1_Y312_R315H] 0.288, GCKNRYDKGKP [THAP1_Y14_D17G] 2.26, HDRNTYEKYLE [TF_Y666_G671E] 0.599, TYQYKYPEGSS [TGM4_Y440_E437Q] 0.941, FGYPGYQCKHY [TIMP3_Y177_S179C] 1.22, HHTNEYEYDEL [TGM1_Y134_D132N] 0.941, SSQILYKLEQS [THADA_Y701_V699I] 0.859, EILLSYLRTGY [TGM1_Y365] 2.54, FPRTGYSVPFG [TGM1_Y370_L366P_YF] 1.77, AVLALHNSTRD [TGFB1_Y81_Y81H] 0.849

What follows are binders tested against SHP2 N-SH2 domain T52S in the same assay as above. Details: peptide library: pTyr-Var.

Enrichment score, inactive:
RRGMPYGGCGD [TGM1_Y312_R315C] 0.365, NREGVYRVFAP [TGFBI_Y537_T538R] 0.571, FGYPGYQSKHY [TIMP3_Y177] 0.911, TYEYKYPEGSS [TGM4_Y440] 0.72, WRGMPYGGRGD [TGM1_Y312_R307W] 0.957, NREGVYTDFAP [TGFBI_Y537_V539D] 0.766, YLGEEYVKAVG [TF_Y674] 0.631, FSGQVYRQRRK [TH_Y230_D227G] 0.325, RRGMPYGGHGD [TGM1_Y312_R315H] 0.278, GCKNRYDKGKP [THAP1_Y14_D17G] 2.55, HDRNTYEKYLE [TF_Y666_G671E] 0.714, TYQYKYPEGSS [TGM4_Y440_E437Q] 0.611, FGYPGYQCKHY [TIMP3_Y177_S179C] 1.27, HHTNEYEYDEL [TGM1_Y134_D132N] 0.969, SSQILYKLEQS [THADA_Y701_V699I] 0.903, EILLSYLRTGY [TGM1_Y365] 2.87, FPRTGYSVPFG [TGM1_Y370_L366P_YF] 1.34, AVLALHNSTRD [TGFB1_Y81_Y81H] 0.753

These binders were tested against SHP2 N-SH2 domain wild-type in the same assay as above. Details: peptide library: pTyr-Var.

Enrichment score, inactive:
RRGMPYGGCGD [TGM1_Y312_R315C] 0.494, NREGVYRVFAP [TGFBI_Y537_T538R] 0.778, FGYPGYQSKHY [TIMP3_Y177] 0.808, TYEYKYPEGSS [TGM4_Y440] 0.887, WRGMPYGGRGD [TGM1_Y312_R307W] 0.983, NREGVYTDFAP [TGFBI_Y537_V539D] 0.81, YLGEEYVKAVG [TF_Y674] 0.778, FSGQVYRQRRK [TH_Y230_D227G] 0.282, RRGMPYGGHGD [TGM1_Y312_R315H] 0.36, GCKNRYDKGKP [THAP1_Y14_D17G] 2.07, HDRNTYEKYLE [TF_Y666_G671E] 0.493, TYQYKYPEGSS [TGM4_Y440_E437Q] 0.981, FGYPGYQCKHY [TIMP3_Y177_S179C] 1.27, HHTNEYEYDEL [TGM1_Y134_D132N] 0.643, SSQILYKLEQS [THADA_Y701_V699I] 0.964, EILLSYLRTGY [TGM1_Y365] 2.38, FPRTGYSVPFG [TGM1_Y370_L366P_YF] 0.691, AVLALHNSTRD [TGFB1_Y81_Y81H] 1.14

Source: the supplement of paper PMC10369915
